Some of the results follow.

For this test, the target named is T1, MBP-FoxP1dN (Mus musculus, UniProt P58462 326-579).
T1 sequence: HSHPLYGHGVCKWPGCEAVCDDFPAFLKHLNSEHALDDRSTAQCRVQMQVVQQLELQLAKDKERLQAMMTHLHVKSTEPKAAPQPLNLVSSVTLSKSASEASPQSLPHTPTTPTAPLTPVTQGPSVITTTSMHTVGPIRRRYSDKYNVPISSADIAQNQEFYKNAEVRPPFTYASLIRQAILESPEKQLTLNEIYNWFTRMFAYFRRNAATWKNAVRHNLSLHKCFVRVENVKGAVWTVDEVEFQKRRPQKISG
The test can be described thus: PD-seq (MBP pull-down with sequencing); 20 mM Tris-HCl pH 7.5, 100 mM NaCl, 1.5 mM MgCl2, 0.4 uM protein, 0.1 uM dsDNA library, 30 min, room temperature, amylose pull-down; high values mean tight binding. Conditions: protein: recombinant; tags: His6-MBP; chain copies: 2; dsDNA, one strand shown. The method, boiled down:
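Protein and DNA were mixed at 0.4 µM and 0.1 µM and held for 30 min at room temperature in Tris pH 7.5 buffer with NaCl and MgCl2; the protein was a His6-MBP-tagged, N-terminally truncated mouse FoxP3 or FoxP1 fragment from E. coli, and the DNA a Klenow-filled double-stranded degenerate library. Amylose resin captured the complexes, which were washed three times. Binding is read as reads-per-million enrichment of pull-down versus input after Illumina sequencing, with replicates pooled.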
As to “GATGATTGTTCTCCCAGCTGATGAATTACACGGGTCGAGTAAACAAATTTTCCTAATCTTTCTGTTCAAGCGCCATCTAC”, the binding signal is 0.97 RPM ratio (pull-down/input).

For “GATGATTGTTCTCCCAGCTGATGAATTTGTCCGATCGAGTAAACAAATTTTCCTAATCTTTCTGTTCAAGCGCCATCTAC”, the binding signal is 0.925 RPM ratio (pull-down/input). With “GATGATTGTTCTCCCAGCTGATGAATTACGGATATCGAGTAAACAAATTTTCCTAATCTTTCTGTTCAAGCGCCATCTAC”, the binding signal is 1.1 RPM ratio (pull-down/input). As for “GATGATTGTTCTCCCAGCTGATGAATTGATGTAGTCGAGTAAACAAATTTTCCTAATCTTTCTGTTCAAGCGCCATCTAC”, the binding signal was 1.11 RPM ratio (pull-down/input). On to “GATGATTGTTCTCCCAGCTGATGAATTAGTATCGTCGAGTAAACAAATTTTCCTAATCTTTCTGTTCAAGCGCCATCTAC”, for which the binding signal was 1.06 RPM ratio (pull-down/input). As for “GATGATTGTTCTCCCAGCTGATGAATTTCAAGTGTCGAGTAAACAAATTTTCCTAATCTTTCTGTTCAAGCGCCATCTAC”, the figure is 0.848 RPM ratio (pull-down/input); as for “GATGATTGTTCTCCCAGCTGATGAATTATGCATATCGAGTAAACAAATTTTCCTAATCTTTCTGTTCAAGCGCCATCTAC”, 1.23 RPM ratio (pull-down/input). As for “GATGATTGTTCTCCCAGCTGATGAATTGCGTTTTTCGAGTAAACAAATTTTCCTAATCTTTCTGTTCAAGCGCCATCTAC”, the figure is 1.3 RPM ratio (pull-down/input); as for “GATGATTGTTCTCCCAGCTGATGAATTCTGCTTATCGAGTAAACAAATTTTCCTAATCTTTCTGTTCAAGCGCCATCTAC”, 1.56 RPM ratio (pull-down/input); as for “GATGATTGTTCTCCCAGCTGATGAATTTCCGCCGTCGAGTAAACAAATTTTCCTAATCTTTCTGTTCAAGCGCCATCTAC”, 0.812 RPM ratio (pull-down/input).

Consider “GATGATTGTTCTCCCAGCTGATGAATTGGCCTACTCGAGTAAACAAATTTTCCTAATCTTTCTGTTCAAGCGCCATCTAC”, for which the binding signal was 0.846 RPM ratio (pull-down/input). The same measure for “GATGATTGTTCTCCCAGCTGATGAATTCCGGTTCTCGAGTAAACAAATTTTCCTAATCTTTCTGTTCAAGCGCCATCTAC”: 0.774 RPM ratio (pull-down/input). For “GATGATTGTTCTCCCAGCTGATGAATTGAGGGAGTCGAGTAAACAAATTTTCCTAATCTTTCTGTTCAAGCGCCATCTAC”, the binding signal is 0.742 RPM ratio (pull-down/input). The same measure for “GATGATTGTTCTCCCAGCTGATGAATTCTCGGACTCGAGTAAACAAATTTTCCTAATCTTTCTGTTCAAGCGCCATCTAC”: 0.778 RPM ratio (pull-down/input); for “GATGATTGTTCTCCCAGCTGATGAATTATTAATCTCGAGTAAACAAATTTTCCTAATCTTTCTGTTCAAGCGCCATCTAC”: 1.07 RPM ratio (pull-down/input).

With “GATGATTGTTCTCCCAGCTGATGAATTGGTGGAATCGAGTAAACAAATTTTCCTAATCTTTCTGTTCAAGCGCCATCTAC”, the binding signal is 0.94 RPM ratio (pull-down/input). In the case of “GATGATTGTTCTCCCAGCTGATGAATTTCTAAATTCGAGTAAACAAATTTTCCTAATCTTTCTGTTCAAGCGCCATCTAC”, the binding signal was 0.983 RPM ratio (pull-down/input). Turning to “GATGATTGTTCTCCCAGCTGATGAATTGAACCTATCGAGTAAACAAATTTTCCTAATCTTTCTGTTCAAGCGCCATCTAC”, the binding signal is 0.946 RPM ratio (pull-down/input). Take “GATGATTGTTCTCCCAGCTGATGAATTCCCTTTGTCGAGTAAACAAATTTTCCTAATCTTTCTGTTCAAGCGCCATCTAC”: the binding signal is 0.82 RPM ratio (pull-down/input). As to “GATGATTGTTCTCCCAGCTGATGAATTCGCGCCGTCGAGTAAACAAATTTTCCTAATCTTTCTGTTCAAGCGCCATCTAC”, the binding signal was 0.86 RPM ratio (pull-down/input). “GATGATTGTTCTCCCAGCTGATGAATTATGCGGTTCGAGTAAACAAATTTTCCTAATCTTTCTGTTCAAGCGCCATCTAC”: the binding signal is 0.993 RPM ratio (pull-down/input). With “GATGATTGTTCTCCCAGCTGATGAATTGTAGGAGTCGAGTAAACAAATTTTCCTAATCTTTCTGTTCAAGCGCCATCTAC”, the binding signal was 0.879 RPM ratio (pull-down/input).

In the case of “GATGATTGTTCTCCCAGCTGATGAATTATCACCGTCGAGTAAACAAATTTTCCTAATCTTTCTGTTCAAGCGCCATCTAC”, the binding signal was 0.976 RPM ratio (pull-down/input). Consider “GATGATTGTTCTCCCAGCTGATGAATTGCAGGTGTCGAGTAAACAAATTTTCCTAATCTTTCTGTTCAAGCGCCATCTAC”, for which the binding signal was 1.06 RPM ratio (pull-down/input). For the sequence “GATGATTGTTCTCCCAGCTGATGAATTATGTATATCGAGTAAACAAATTTTCCTAATCTTTCTGTTCAAGCGCCATCTAC”, the binding signal was 1.79 RPM ratio (pull-down/input). The same measure for “GATGATTGTTCTCCCAGCTGATGAATTCACCCCTTCGAGTAAACAAATTTTCCTAATCTTTCTGTTCAAGCGCCATCTAC”: 0.782 RPM ratio (pull-down/input). Consider “GATGATTGTTCTCCCAGCTGATGAATTGCCTCGTTCGAGTAAACAAATTTTCCTAATCTTTCTGTTCAAGCGCCATCTAC”, for which the binding signal is 1.01 RPM ratio (pull-down/input).

For “GATGATTGTTCTCCCAGCTGATGAATTTCGATTCTCGAGTAAACAAATTTTCCTAATCTTTCTGTTCAAGCGCCATCTAC”, the binding signal was 0.862 RPM ratio (pull-down/input). As for “GATGATTGTTCTCCCAGCTGATGAATTTCGTAATTCGAGTAAACAAATTTTCCTAATCTTTCTGTTCAAGCGCCATCTAC”, the figure is 0.954 RPM ratio (pull-down/input). As for “GATGATTGTTCTCCCAGCTGATGAATTCGATCCATCGAGTAAACAAATTTTCCTAATCTTTCTGTTCAAGCGCCATCTAC”, the figure is 0.868 RPM ratio (pull-down/input); as for “GATGATTGTTCTCCCAGCTGATGAATTTCTCCAATCGAGTAAACAAATTTTCCTAATCTTTCTGTTCAAGCGCCATCTAC”, 1 RPM ratio (pull-down/input).

The record behind these values is PMC12820563, “FoxP3 forms a head-to-head dimer in vivo and stabilizes its multimerization on adjacent microsatellites”.
